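Cultured in 96-well plates, cells were exposed to test compound for 48 hours across five concentrations. GI50 marks 50% less growth. TGI is the concentration that stops growth completely.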
Test system: NCI-H322M lung
Test: NCI-60 cell line screen, 48 h

Row | Structure (SMILES) | GI50 | TGI
1 | CC1=C2C(=C[C@@](C)(COS(C)(=O)=O)[C@@H]2O)C(=O)[C@](C)(O)C12CC2 | 0.953 µM | 6.15 µM
2 | COc1ccc(N2CCN(C3=C(Cl)C(=O)c4ncccc4C3=O)CC2)cc1 | 15.3 µM | 28.7 µM
3 | C#Cc1nc(C(=O)NCCCCCCC(=O)NO)cs1 | 2.21 µM | 16.4 µM
4 | O=C(/C=C/c1csc(Br)n1)NO | 2.91 µM | > 100 µM
